Sequences with one replicate were seen in a single cluster, so their values are uncertain.
What follows are sequences tested on ATP (assay: switch fluorescence ratio, 500 uM ATP over buffer (Cy3 cluster intensity, sum of 5 cycles each) (fold (ratio)); higher = stronger signal-on switching upon ATP binding; sequences stand for … in TCGTCGGCAGCGTCAGATGTGTATAAGAGACAGTTTTTTTTTTTTTTTTTTTTTTTTT…TC). Conditions: aptamer strand: ATP DNA aptamer (quencher-CACCTGGGGGAGTATTGCGGAGGAAGG + anchor), 100 nM annealed; ATP concentration: 500 uM; one replicate.
Procedure, shortened: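 Values give the fluorescence ratio for each switch-domain sequence, averaged from per-cluster ratios of summed target-cycle to summed buffer-cycle Cy3 intensity. The Cy3-labelled switching-strand clusters sat on a modified Illumina MiSeq flow-cell, were annealed to 100 nM quencher-labelled ATP aptamer, and were imaged in selection buffer, then after 15 min with 500 uM ATP at 22 °C. Five cycles ran with NaOH stripping and re-annealing between them, and clusters outside 100-1000 RFU were excluded.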
For TAATATGTTT, the switch fluorescence ratio was 0.992. In the case of TAATCACTTG, the switch fluorescence ratio is reported as 0.972. For TAATCCCCAG, the switch fluorescence ratio was 1.03. TAATCCCGCG was tested, and the switch fluorescence ratio was 1.04. With TAATCCTCTG the switch fluorescence ratio was 1.12. Sequence TAATCGATTG has a switch fluorescence ratio of 0.977. TAATCGTCCT was tested, and the switch fluorescence ratio was 1.07. TAATCTTGCA showed a switch fluorescence ratio of 1.04. TAATGCAGCC gave a switch fluorescence ratio of 1.01. TAATGCATCC was tested, and the switch fluorescence ratio was 1.06. TAATGCCCTG was tested, and the switch fluorescence ratio was 1.01. With TAATGCGAA the switch fluorescence ratio was 1.03. TAATGCTCGT showed a switch fluorescence ratio of 0.968. TAATGGCTA was tested, and the switch fluorescence ratio was 0.987. TAATGGTAGG showed a switch fluorescence ratio of 0.985. TAATGTTTCT was tested, and the switch fluorescence ratio was 0.94. Sequence TAATTATATG has a switch fluorescence ratio of 0.968. In the case of TAATTATCGT, the switch fluorescence ratio is reported as 1.01. TAATTCCGT was tested, and the switch fluorescence ratio was 0.991. Work on TAATTGCT yielded a switch fluorescence ratio of 0.969. TAATTGGCGT was tested, and the switch fluorescence ratio was 0.963. TAATTGTCGT gave a switch fluorescence ratio of 1.03. In the case of TACAAAAAGT, the switch fluorescence ratio is reported as 1.03. TACAAACGGA was tested, and the switch fluorescence ratio was 1.29. Work on TACAAAGTTT yielded a switch fluorescence ratio of 0.97. TACAAATTTA gave a switch fluorescence ratio of 1.03. TACAAGAGAA was tested, and the switch fluorescence ratio was 0.994. TACAATACA showed a switch fluorescence ratio of 1.25. TACAATCTTC gave a switch fluorescence ratio of 1.05. Work on TACAATGCCC yielded a switch fluorescence ratio of 1.04. TACAATGGAA showed a switch fluorescence ratio of 1.01. TACAATGTGA showed a switch fluorescence ratio of 1.02. TACACAGTAG was tested, and the switch fluorescence ratio was 1.08. Work on TACACATGGT yielded a switch fluorescence ratio of 1.02. For TACACCTTGC, the switch fluorescence ratio was 2.27. With TACAGCGAAG the switch fluorescence ratio was 0.986. For TACAGGCCCG, the switch fluorescence ratio was 1.07. TACAGGGGT showed a switch fluorescence ratio of 1.13. Work on TACAGTACGA yielded a switch fluorescence ratio of 1.36. TACAGTCGG gave a switch fluorescence ratio of 0.995. Sequence TACAGTGCGC has a switch fluorescence ratio of 0.944. With TACATAGCAT the switch fluorescence ratio was 1.23. With TACATCACAC the switch fluorescence ratio was 1.31. TACATCCATA showed a switch fluorescence ratio of 1.02. With TACATCCTTG the switch fluorescence ratio was 1.01. With TACATCTTAT the switch fluorescence ratio was 0.974. TACATGGTTA showed a switch fluorescence ratio of 0.975. In the case of TACATGTAGG, the switch fluorescence ratio is reported as 1.06. TACCAAGCGC was tested, and the switch fluorescence ratio was 1.01. TACCAATTGG gave a switch fluorescence ratio of 1.01. TACCAGGAAT showed a switch fluorescence ratio of 0.995. For TACCAGGGGG, the switch fluorescence ratio was 1.13. With TACCAGGTGG the switch fluorescence ratio was 1.16. Sequence TACCAGTCAA has a switch fluorescence ratio of 1.03. TACCATTTGC was tested, and the switch fluorescence ratio was 1. TACCCAGGGG showed a switch fluorescence ratio of 4.2. Sequence TACCCCGGCA has a switch fluorescence ratio of 1.11. TACCCTCTGT was tested, and the switch fluorescence ratio was 0.981. Work on TACCCTGTCC yielded a switch fluorescence ratio of 1.24. Work on TACCGCGTGA yielded a switch fluorescence ratio of 1.02. With TACCGCTTGA the switch fluorescence ratio was 1.04. Sequence TACCGGAACA has a switch fluorescence ratio of 1.03. Work on TACCGTGTAG yielded a switch fluorescence ratio of 1.02. In the case of TACCTAGCCC, the switch fluorescence ratio is reported as 1.09. TACCTATGCT gave a switch fluorescence ratio of 1.06. With TACCTCAAG the switch fluorescence ratio was 1.1. In the case of TACCTCTTTT, the switch fluorescence ratio is reported as 1. TACCTGGATG was tested, and the switch fluorescence ratio was 0.996. Sequence TACCTTATAC has a switch fluorescence ratio of 1.24. TACGAACGAA gave a switch fluorescence ratio of 1.48. TACGAACGGG was tested, and the switch fluorescence ratio was 1.43. TACGACACAG was tested, and the switch fluorescence ratio was 1.1. TACGAGCAGC was tested, and the switch fluorescence ratio was 1.06. For TACGAGGTGA, the switch fluorescence ratio was 1.04. With TACGCATTA the switch fluorescence ratio was 2.04. TACGCCGTTT gave a switch fluorescence ratio of 0.985. Sequence TACGCTCCC has a switch fluorescence ratio of 1.15. Sequence TACGCTCTTA has a switch fluorescence ratio of 1.01. With TACGGACATA the switch fluorescence ratio was 1.21. With TACGGACGTC the switch fluorescence ratio was 0.978. In the case of TACGGATGTA, the switch fluorescence ratio is reported as 0.949. With TACGGCAAAA the switch fluorescence ratio was 1.31. For TACGGCAGC, the switch fluorescence ratio was 1.07. Work on TACGGGCGTT yielded a switch fluorescence ratio of 1.02. For TACGGGCTAG, the switch fluorescence ratio was 1.04. For TACGGGTAGA, the switch fluorescence ratio was 1.01. Work on TACGGGTTTA yielded a switch fluorescence ratio of 0.98. TACGTAAGTG gave a switch fluorescence ratio of 1.06. TACGTATTAA was tested, and the switch fluorescence ratio was 1.17. TACGTATTAC was tested, and the switch fluorescence ratio was 2.14. Work on TACGTCTATA yielded a switch fluorescence ratio of 0.988. Sequence TACGTGCG has a switch fluorescence ratio of 1.04. In the case of TACGTGCGCA, the switch fluorescence ratio is reported as 1.08. Work on TACGTGGGTC yielded a switch fluorescence ratio of 1.02. Sequence TACTAAAAGG has a switch fluorescence ratio of 1.01. For TACTAAAGGG, the switch fluorescence ratio was 1. TACTAACTGG showed a switch fluorescence ratio of 1.23. With TACTAAGACG the switch fluorescence ratio was 1.08. In the case of TACTAATCCC, the switch fluorescence ratio is reported as 1.04. With TACTACATGC the switch fluorescence ratio was 0.967. Sequence TACTACCGTT has a switch fluorescence ratio of 1.04. For TACTACCTTG, the switch fluorescence ratio was 1.04. TACTAGTTT gave a switch fluorescence ratio of 1.5. With TACTAGTTTT the switch fluorescence ratio was 1. Sequence TACTATCAC has a switch fluorescence ratio of 1.25. With TACTATGTTA the switch fluorescence ratio was 1.02. Sequence TACTATTGGC has a switch fluorescence ratio of 0.907. TACTATTTT gave a switch fluorescence ratio of 0.968. TACTCAATTG was tested, and the switch fluorescence ratio was 0.941. With TACTCGAGAT the switch fluorescence ratio was 1.05. Sequence TACTCTTGTC has a switch fluorescence ratio of 0.949. Sequence TACTCTTTCC has a switch fluorescence ratio of 1.15. Sequence TACTGAGTGT has a switch fluorescence ratio of 1.04. Work on TACTGCAACA yielded a switch fluorescence ratio of 1.5. TACTGCTGGT showed a switch fluorescence ratio of 1.01. TACTGTAAGG showed a switch fluorescence ratio of 1.01. With TACTGTCCAG the switch fluorescence ratio was 1.02. Work on TACTGTTTCA yielded a switch fluorescence ratio of 0.998. In the case of TACTTAAAAG, the switch fluorescence ratio is reported as 1.08. In the case of TACTTATTTC, the switch fluorescence ratio is reported as 1.02. With TACTTGAATC the switch fluorescence ratio was 1.04. TACTTGATTA gave a switch fluorescence ratio of 0.985. Sequence TACTTGGTAC has a switch fluorescence ratio of 1.03. Work on TACTTTCAGG yielded a switch fluorescence ratio of 1.03. In the case of TACTTTGTAA, the switch fluorescence ratio is reported as 0.974. With TAGAAAATAT the switch fluorescence ratio was 0.97. TAGAAGCGTC gave a switch fluorescence ratio of 1.05. For TAGAAGCTTA, the switch fluorescence ratio was 1.33. In the case of TAGAAGGTGC, the switch fluorescence ratio is reported as 1.34. TAGAATTCGG showed a switch fluorescence ratio of 0.979. TAGACACGGA gave a switch fluorescence ratio of 1.04. Sequence TAGACAGACA has a switch fluorescence ratio of 1.05. Work on TAGACATG yielded a switch fluorescence ratio of 0.992. TAGACCGCTT showed a switch fluorescence ratio of 1.06. In the case of TAGACGCCAG, the switch fluorescence ratio is reported as 0.909. With TAGACGGCGT the switch fluorescence ratio was 0.999. Work on TAGACGGTG yielded a switch fluorescence ratio of 0.948. TAGACGGTGG showed a switch fluorescence ratio of 1.08. TAGACTAGCG gave a switch fluorescence ratio of 0.961. TAGACTGTTA was tested, and the switch fluorescence ratio was 1.03. Work on TAGACTTG yielded a switch fluorescence ratio of 0.905. Sequence TAGAGACAGG has a switch fluorescence ratio of 0.95. For TAGAGAGTAG, the switch fluorescence ratio was 0.965. In the case of TAGAGAGTTT, the switch fluorescence ratio is reported as 1.08. In the case of TAGAGATTTC, the switch fluorescence ratio is reported as 1.02. TAGAGCAATC was tested, and the switch fluorescence ratio was 5.71. Work on TAGAGCCAGC yielded a switch fluorescence ratio of 1.02. TAGAGCGCGG was tested, and the switch fluorescence ratio was 1.1. In the case of TAGAGCTTTG, the switch fluorescence ratio is reported as 1.01. TAGAGGATTG showed a switch fluorescence ratio of 0.999. TAGAGGGACA was tested, and the switch fluorescence ratio was 1.01. Sequence TAGAGGTTGT has a switch fluorescence ratio of 0.978. Work on TAGAGTATGG yielded a switch fluorescence ratio of 0.997. For TAGAGTTTA, the switch fluorescence ratio was 0.981. With TAGAGTTTTC the switch fluorescence ratio was 1.03. Sequence TAGATAACGC has a switch fluorescence ratio of 1.02. Work on TAGATATATG yielded a switch fluorescence ratio of 0.985. In the case of TAGATCGGCG, the switch fluorescence ratio is reported as 1.04. With TAGATCGGCT the switch fluorescence ratio was 1.06. TAGATGGCCC gave a switch fluorescence ratio of 0.991. Sequence TAGATGTTAG has a switch fluorescence ratio of 0.998. TAGATTGCGT showed a switch fluorescence ratio of 1.02. TAGATTGTCA gave a switch fluorescence ratio of 0.981. TAGATTTGAA was tested, and the switch fluorescence ratio was 0.984. Sequence TAGCAAGAGA has a switch fluorescence ratio of 0.998. For TAGCACCGGC, the switch fluorescence ratio was 1.07. Work on TAGCAGTGG yielded a switch fluorescence ratio of 1.08. TAGCATCTAG was tested, and the switch fluorescence ratio was 0.969. TAGCATGTAG gave a switch fluorescence ratio of 1.05. In the case of TAGCCACGA, the switch fluorescence ratio is reported as 1.05. With TAGCCATTG the switch fluorescence ratio was 0.995. Work on TAGCCCCGAA yielded a switch fluorescence ratio of 1.07. In the case of TAGCCGAATG, the switch fluorescence ratio is reported as 0.987. Sequence TAGCCGGCCC has a switch fluorescence ratio of 1. Work on TAGCCGGTAC yielded a switch fluorescence ratio of 1.39. With TAGCCGTACG the switch fluorescence ratio was 0.992. For TAGCCTGTTT, the switch fluorescence ratio was 0.967. Work on TAGCGACAAT yielded a switch fluorescence ratio of 1.08. TAGCGACGTC was tested, and the switch fluorescence ratio was 0.979. Sequence TAGCGATGAT has a switch fluorescence ratio of 1.02. For TAGCGGATTG, the switch fluorescence ratio was 1.02. TAGCGGGCCC showed a switch fluorescence ratio of 0.984. TAGCGTGGGG was tested, and the switch fluorescence ratio was 0.997. TAGCGTTCCT showed a switch fluorescence ratio of 1.23. TAGCGTTGTA showed a switch fluorescence ratio of 1.03. For TAGCGTTTCT, the switch fluorescence ratio was 0.979. With TAGCTACTTA the switch fluorescence ratio was 1.05. Work on TAGCTATTTG yielded a switch fluorescence ratio of 1.01. TAGCTCACAC showed a switch fluorescence ratio of 1.06. In the case of TAGCTGCGTT, the switch fluorescence ratio is reported as 0.999. TAGCTGGCAT was tested, and the switch fluorescence ratio was 1. Work on TAGCTTAAGC yielded a switch fluorescence ratio of 0.983. For TAGCTTCACG, the switch fluorescence ratio was 1.01. TAGCTTGAAG gave a switch fluorescence ratio of 1.02. Sequence TAGGAAGCTA has a switch fluorescence ratio of 1. Work on TAGGAATCAA yielded a switch fluorescence ratio of 0.979. Sequence TAGGAATTGG has a switch fluorescence ratio of 1.1. With TAGGACATTA the switch fluorescence ratio was 1.06. Work on TAGGACCGAA yielded a switch fluorescence ratio of 0.994. For TAGGACGTTC, the switch fluorescence ratio was 1.01. Sequence TAGGACTAGT has a switch fluorescence ratio of 0.997.

— the supplement of paper PMC10126150
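Note: ATP exposure 15 min at 22 °C before imaging.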
